Results published in US20260199504A1 (JIANGSU HENGRUI PHARMACEUTICALS, published 2026).

Target: T1, Nectin-4 expressed on T47D and MDA-MB-468 human breast cancer cells (human, UniProt Q96NY8 32-510)
T1 sequence (looked up): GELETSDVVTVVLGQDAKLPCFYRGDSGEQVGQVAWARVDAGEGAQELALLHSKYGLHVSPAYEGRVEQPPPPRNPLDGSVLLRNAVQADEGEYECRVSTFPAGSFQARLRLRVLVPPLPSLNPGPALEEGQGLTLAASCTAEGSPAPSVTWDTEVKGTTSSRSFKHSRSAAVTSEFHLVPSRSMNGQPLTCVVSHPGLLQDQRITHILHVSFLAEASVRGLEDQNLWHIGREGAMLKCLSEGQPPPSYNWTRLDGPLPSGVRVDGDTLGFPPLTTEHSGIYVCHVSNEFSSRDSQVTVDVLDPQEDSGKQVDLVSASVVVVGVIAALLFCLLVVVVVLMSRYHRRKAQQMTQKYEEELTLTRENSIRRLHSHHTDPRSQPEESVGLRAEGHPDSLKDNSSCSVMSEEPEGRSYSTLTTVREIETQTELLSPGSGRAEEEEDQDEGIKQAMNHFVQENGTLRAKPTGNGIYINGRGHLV
Assay: cell-based or functional assay

B1: ADC-2 (EV201-9-A, n=3.90) (other)
heavy: EVQLVESGGGLVQPGGSLRLSCAASGFTFSSYNMNWVRQAPGKGLEWVSYISSSSSTIYYADSVKGRFTISRDNAKNSLSLQMNSLRDEDTAVYYCARAYYYGMDVWGQGTTVTVSSASTKGPSVFPLAPSSKSTSGGTAALGCLVKDYFPEPVTVSWNSGALTSGVHTFPAVLQSSGLYSLSSVVTVPSSSLGTQTYICNVNHKPSNTKVDKRV[letters of human IgG1 Fc omitted]
light: DIQMTQSPSSVSASVGDRVTITCRASQGISGWLAWYQQKPGKAPKFLIYAASTLQSGVPSRFSGSGSGTDFTLTISSLQPEDFATYYCQQANSFPPTFGGGTKVEIKRTVAAPSVFIFPPSDEQLKSGTASVVCLLNNFYPREAKVQWKVDNALQSGNSQESVTEQDSKDSTYSLSSTLTLSKADYEKHKVYACEVTHQGLSSPVTKSFNRGEC
modifications: drug-linker compound 9-A conjugated after TCEP reduction; average loading n=3.90 for the whole antibody; sites not stated
Question: What does the source list for B1?
Answer: IC50 (nM), killing of MDA-MB-468 (++) cells, CTG: 152 nM; IC50 (nM), killing of T47D (+++) cells, CTG: 193 nM
